Assay results as given in the RNAGym collection of RNA variant scans (doi:10.7554/elife.90254).
Read counts are not given, so values of variants with three or more changes are uncertain.

B1: LINE1-mini (parent)
chain: GGCAGAGCUCAACACAGCGUGGCAAAGUGGCUGUGGCUAGACUGCC

Variants of: B1
Assay: self-cleavage, relative activity (ratio to wild type); higher = more cleavage; in vitro, sequencing; the parent is a self-cleaving ribozyme

Row | Variant | self-cleavage
1 | A14U G22U U38A | 0.49
2 | C15A A16C C37U G44C | 0
3 | C15A A16U C23A G27C | 0.11
4 | A14U G22C G29A G40C | 0.11
5 | A14U G19C U28A C42U G44C | 0.06
6 | C15A A16C A25C | 0.11
7 | A14U U20A U38C C46U | 0.12
8 | C15A C23A C42A U43A | 0.01
9 | A14U G17C G40U | 0.05
10 | A14U G21A U38G | 0.01
11 | A14U C23A G33C G35A | 0.02
12 | C15A C23U G33A C37A U38G | 0.02
13 | C15A A26G C37A C46U | 0.04
14 | C15A C23A A25G U32C C45G | 0.01
15 | A14U G21U U38A A41G | 0.01
16 | C15A C42A C46U | 0.03
17 | A14U G21U U32A | 0.02
18 | A14U G35U A41U | 0.16
19 | C15A G30C C31A C37A | 0.12
20 | A14U C15U U28C G36C C46G | 0.01
21 | A14U U28G U38C | 0.11
22 | C15A G17U C45A | 0.02
23 | C15A A26U G36U C37G | 0.03
24 | C15A G22C C31U A39C G44C | 0.01

Row | Variant | self-cleavage
25 | C15A C45U C46G | 0.04
26 | A14U C23U C37U G44C | 0.06
27 | C15A G21U C46A | 0.06
28 | A14U C31A A41C | 0.01
29 | C15A G22A G36U | 0.1
30 | C15A A16G C23U C42G G44U | 0.04
31 | A14U A24C A26G U38C | 0.09
32 | A14U G19U C31U U34A A41C C45A | 0
33 | A14U C18U G19A | 0.12
34 | C15A G36C C37U | 0.04
35 | C15A A26U A39U A41C | 0.06
36 | C15A G21A G27C U43C | 0.07
37 | C15A A26U G27C C37G | 0.01
38 | C15A G19A G40C | 0.03
39 | A14U A41G G44A | 0.01
40 | A14U G19A G22C G44U | 0.05
41 | A14U G33A A41C | 0.05
42 | C15A C31G U34C C45U | 0.13
43 | C15A G17C A26G G44C | 0.03
44 | A14U G30A G36U | 0.05
45 | A14U G22U C42G | 0.03
46 | A14U A24G U43A | 0.17
47 | C15A G33U A41C C46U | 0.03
48 | C15A G17A U20G | 0.18

Row | Variant | self-cleavage
49 | C15A G33C C45A | 0.04
50 | A14U A25G G36U | 0.01
51 | C15A A25U C42U | 0.05
52 | C15A A24G G30C G35C | 0.03
53 | C15A G29C G35U C45A | 0
54 | C15A G27A G30U C42G | 0.05
55 | C15A C18G G22C C42G | 0.05
56 | C15A G27U C45U | 0.07
57 | A14U G21U A24C A39U | 0.09
58 | A14U G27U G44A | 0.12
59 | A14U G35C C42U | 0.16
60 | C15A G19A G29C | 0.07
61 | C15A U20A C31A U38C | 0.01
62 | C15A C23A A26C U38A A39U | 0.93
63 | A14U G19U G30A | 0.09
64 | C15A C31A U38A | 0.01
65 | C15A G33A U34G G40A | 0.02
66 | C15A A16C G29U | 0.01
67 | C15A A24C A39C | 0.02
68 | C15A G17U C18A G19U C37U | 0.09
69 | A14U G22C C23A | 0.29
70 | C15A A16C C31U | 0.02
71 | A14U G19C G30U | 0.14
72 | C15A G19C C37U G40A | 0.04

Row | Variant | self-cleavage
73 | C15A G36C C45U | 0.01
74 | A14U G17C G22A C23U U28C | 0.4
75 | C15A G33A C37G A41C | 0.01
76 | A14U U20G C42G C45U | 0.07
77 | A14U C18G G19U G30U U43C | 0.03
78 | C15A A26G U38G | 0.04
79 | C15A G19C C23G G40U | 0.02
80 | A14U A39U A41U | 0.02
81 | A14U G30U C37U | 0.02
82 | A14U C18G G22U | 0.07
83 | A14U A16U G30A G36U A39G | 0.09
84 | C15A C18A G35C | 0.04
85 | C15A G19U G21C C37U G40U | 0.05
86 | A14U C31G C45A | 0
87 | C15A G30U A39C | 0.07
88 | C15A G36A G44C | 0.03
89 | C15A G30U U32G U38A | 0.02
90 | C15A G19U G35C | 0.08
91 | C15A G19C C42G | 0.07
92 | A14U A24C C46A | 0.05
93 | C15A C23U G29U C46A | 0.02
94 | C15A C18A A24C | 0.19
95 | A14U G19A G29U | 1.46
96 | A14U A16U U43C C46A | 0.04

Row | Variant | self-cleavage
97 | A14U G29C G30U U38G | 0.05
98 | C15A G22A G35U U38G | 0.12
99 | A14U C18A G29U C31A C42A | 0.01
100 | C15A G29C U38A A41G | 0.06
101 | A14U U38C G40C | 0
102 | A14U U28A G33C U43A | 0
103 | A14U G19A A25U G35A G40U | 0.06
104 | C15A G17C G21U | 0.09
105 | A14U G17C C23A C31G | 0.06
106 | C15A G22A A24C G36C U43G | 0
107 | A14U A26U G27C | 0.02
108 | C15A U20A G30U C31A U32A C45G | 0.07
109 | A14U A25G C45A | 0.03
110 | C15A A16G G40U | 0.15
111 | C15A A26U G35U C46A | 0.04
112 | A14U G22U C46U | 1.32
113 | C15A A16G G29U G35U A41G | 0.04
114 | C15A G21C A26U C31G | 0.03
115 | C15A C18U G21A G22U C23A C46G | 0.03
116 | A14U C23G C42A | 0.1
117 | C15A A25C U32G | 0.03
118 | A14U G19A U20C C42U G44U | 0.06
119 | C15A G21A G22U G30C | 0.04
120 | A14U C15U G22A G30C G36C C37U C42U | 0.04

Row | Variant | self-cleavage
121 | A14U G19U G22A | 0.67
122 | A14U G19C C31A | 0.06
123 | C15A U20A U38C | 0.03
124 | A14U A25C G29C U38A U43A | 0
125 | A14U A41G U43G | 0
126 | A14U C15A U20C G21C A41C | 0
127 | A14U A25C G29C G40U | 0.05
128 | A14U G35U U38A | 0.01
129 | A14U G22A A26C | 0.8
130 | C15A G40U C45A | 0.06
131 | C15A G21U U38A | 0.23
132 | C15A U20A G27U A39U | 0.01
133 | A14U C15U C18A G29C | 0.04
134 | A14U G27A U32A U34G C46U | 0.04
135 | C15A G33C G44A C45G | 0.01
136 | A14U C18U A41C | 0.08
137 | C15A C23A G44A | 0.07
138 | C15A A26U C42U | 0.02
139 | A14U G29A A39C G44A | 0.03
140 | C15A C37A G40C | 0.05
141 | C15A A16U U32A G44C | 0.03
142 | C15A G19C G21A G44U | 0.05
143 | C15A A25C A41U | 0.04
144 | C15A G19A G29A C46U | 0.06

Row | Variant | self-cleavage
145 | C15A A24C C31A U34C | 0.03
146 | A14U A24C U43C | 0.05
147 | A14U G27C U32A C46U | 0.02
148 | C15A G21U G27A | 0.04
149 | C15A G29C G44U | 0.02
150 | C15A G35U G44C | 0.03
151 | A14U A26U C31A C46A | 0.05
152 | C15A G29A G36A U43G C45G | 0
153 | A14U G33A G35U G40C C45U | 0.04
154 | C15A A16C A26C G30U G33C C37G | 0.06
155 | A14U G33C U34A | 0.08
156 | C15A C23A G40C | 0.12
157 | C15A G17C A24U | 0.15
158 | C15A G19A U28A | 0.03
159 | C15A G17A A39C G44U | 0.02
160 | C15A G30A C46A | 0.09
161 | A14U C15A G44A | 0.05
162 | C15A C18U C37G | 0
163 | C15A C18U C37A | 0.06
164 | A14U G35A C46A | 0.08
165 | A14U C31A G40U | 0.08
166 | A14U G19U G30A U32G | 0.11
167 | A14U G40U U43G C46A | 0.02
